The target of this assay is T1, recombinant human C-reactive protein, purified from Escherichia coli (human, UniProt P02741 19-224).
T1 sequence: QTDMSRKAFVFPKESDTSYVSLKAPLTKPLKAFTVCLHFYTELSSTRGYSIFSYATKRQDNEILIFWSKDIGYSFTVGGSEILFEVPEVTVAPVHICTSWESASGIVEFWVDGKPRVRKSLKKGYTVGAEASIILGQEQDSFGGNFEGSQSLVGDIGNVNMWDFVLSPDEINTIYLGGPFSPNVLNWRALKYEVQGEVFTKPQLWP
As to the kind of experiment: native MS.

B1: Serum amyloid P component, purified from human serum (natural protein)
chain: not shown
modifications: glycosylated at Asn-32
For the molecule B1, the binding result is “binds”.

For the origin of these results see article PMC5157838 (Analytical chemistry, 2015).
